According to PubChem BioAssay AID1345083 (National Center for Advancing Translational Sciences (NCATS), 2018):
About 6,200 (6.6%) of roughly 94,000 compounds were called active. Inconclusive results, whose numbers are uncertain, are shown with a selection of clear calls. Calls come from the whole dose curve; as a rule, active = well fitted inhibition curve with a large enough effect; inconclusive = small, poorly fitted or top-dose-only effect; inactive = flat fitted curve, though single readings scatter. Potencies of inconclusive entries are doubtful fits and often do not repeat.
Potency is the fitted concentration of half-maximal effect; tags give direction and shape of the fitted curve.

Assay: Cytotoxic Profiling in HEK 293 Cell Line of Diverse Libraries Using Quantitative High-Throughput Screening; note: nearly all actives have a fitted effect of over 60% in size
Settings: HEK 293 viability, ATP luminescence (CellTiter-Glo), 48-72 h; series mostly up to 115 µM
Summary of the method: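 Cells seeded first (HEK 293, 250 cells/well), then compound added by pintool. Incubation ran 48 or 72 hr at 37 degree Celsius. CellTiter-Glo was added and luminescence imaged after 10 min at room temperature.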
With CN1c2cc(C(=O)NCc3ccccc3Cl)ccc2C(=O)N2CCCC21 (stereo unspecified) the Potency was inconclusive: 79.4 µM [inhibitor, single point].
For CCC(Cn1ccnc1)NC(=O)c1cccc(NCc2ccc(F)cc2)c1 (stereo unspecified), the Potency was inconclusive: 100 µM [inhibitor, single point].
In the case of c1ccc(CCCc2noc(-c3ccc(N4CCCNCC4)nc3)n2)cc1, the Potency is reported as active: 22.4 µM.
With O=C(C1CC(=O)N(c2n[nH]c3ccccc23)C1)N1CCc2c([nH]c3ccccc23)C1 (stereo unspecified) the Potency was inconclusive: 79.4 µM [inhibitor, partial curve, poor fit].
With COc1ccc(-c2noc([C@@H]3CCCN3C(=O)c3cccc(Cl)c3)n2)cc1 the Potency was inconclusive: 79.4 µM [inhibitor, partial curve].
For CSCC(=O)Nc1nn(-c2ccc(F)cc2)c2cccc(N3CCOCC3)c12, the Potency was inconclusive: 31.6 µM [inhibitor, partial curve, poor fit].
With Cn1ccc(Nc2ccc3nnc(-c4ccccn4)n3n2)n1 the Potency was “inactive”.
For COc1ccc(CN2C[C@H](O)C[C@H]2c2nc(-c3ccncc3)no2)cc1, the Potency was inconclusive: 56.2 µM [inhibitor, partial curve, poor fit].
With O=C(Nc1cccc(C(F)(F)F)c1)N[C@H]1CO[C@H]2[C@@H]1OC[C@@H]2Nc1nccc(C2CCCC2)n1 the Potency was inconclusive: 79.4 µM [inhibitor, partial curve, poor fit].
For COc1ccccc1-c1[nH]nc2ncc(C(=O)NCC3CCOCC3)nc12, the Potency was “inactive”.
With Fc1ccc(Cc2nc3nccc(-c4cccs4)n3n2)cc1 the Potency was inconclusive: 89.1 µM [inhibitor, single point].
In the case of Cc1nc2c(c(-c3ccc(O)cc3)n1)CN(Cc1cccc3ccccc13)CC2, the Potency is reported as inconclusive: 44.7 µM [inhibitor, partial curve, poor fit].
For CN(C)Cc1cc(C[C@@H]2C[C@H](NCc3ccc(F)cc3)C2(C)C)no1, the Potency was inconclusive: 100 µM [inhibitor, partial curve, poor fit].
With COc1cccc(N2C(=O)NC(=NC3CCCCC3)C23CCCN(Cc2ccc(F)cc2)C3)c1 (stereo unspecified) the Potency was inconclusive: 50.1 µM [inhibitor, partial curve, poor fit].
With CC1Oc2ccc(NC(=O)Cc3ccc(F)cc3)cc2CN(CC2CC2)C1=O (stereo unspecified) the Potency was active: 39.8 µM.
For CC(=O)N1CCN(CC[C@H]2CN(C(=O)c3ccnc(Cl)c3)CC[C@H]2CC(=O)O)CC1, the Potency was “inactive”.
With CS(=O)(=O)c1ccc(CC(=O)N[C@H]2CCOC[C@H]2C2CCOCC2)cc1 the Potency was “inactive”.
With CS(=O)(=O)N1CCCCC1CCNc1nccc(-c2cccnc2)n1 (stereo unspecified) the Potency was “inactive”.
With CCCc1noc(-c2cn(C3CCN(C(=O)c4ccc(F)c(F)c4)CC3)nn2)n1 the Potency was inconclusive: 39.8 µM [inhibitor, partial curve, poor fit].
In the case of O=C1Nc2ccccc2CC12CCN([S+](=O)([O-])c1ccccc1)C2 (stereo unspecified), the Potency is reported as inconclusive: 89.1 µM [inhibitor, single point].
In the case of O=C(NCCc1ccccn1)[C@@H]1C[C@@H](c2ccc(F)cc2)N(Cc2ccccc2)C1, the Potency is reported as inconclusive: 100 µM [inhibitor, partial curve].
In the case of CN(Cc1ccccc1C(F)(F)F)C(=O)c1ccccc1Cl, the Potency is reported as inconclusive: 100 µM [inhibitor, partial curve, poor fit].
In the case of Cc1ccc(S(=O)(=O)N2CCCC(Cn3cnc4cccnc43)C2)c(C)c1 (stereo unspecified), the Potency is reported as inconclusive: 44.7 µM [inhibitor, partial curve, poor fit].
With CN1CCOc2c(C(=O)NCCc3cnc[nH]3)cc(-c3cccc4[nH]ccc34)cc21 the Potency was inconclusive: 100 µM [inhibitor, partial curve, poor fit].
In the case of Cc1cc(S(=O)(=O)N2CCC(n3cnnc3C)CC2)ccc1F, the Potency is reported as “inactive”.
With Cc1nc(-c2ccccc2)n(CC(=O)Nc2ccc(Cl)cc2)c(=O)c1CCO the Potency was inconclusive: 56.2 µM [inhibitor, partial curve, poor fit].
For Cc1noc(C)c1-c1cc2c(cc(C)n2C)c(-c2ccccc2)n1, the Potency was inconclusive: 50.1 µM [inhibitor, partial curve, poor fit].
With COc1ccc(-c2nc(C)nc3c2CCN(Cc2ccc(F)cc2)CC3)cc1 the Potency was inconclusive: 39.8 µM [inhibitor, partial curve, poor fit].
In the case of COc1ccccc1Nc1cnc2ccc(-c3ccccc3OC)nn12, the Potency is reported as inconclusive: 56.2 µM [inhibitor, full curve, poor fit].
For CCC(C)NC(=O)c1cc(-c2ccc(F)cc2)cn1C (stereo unspecified), the Potency was inconclusive: 89.1 µM [inhibitor, single point].
In the case of CCc1noc(CC2CCOC3(CCN(S(=O)(=O)c4ccc(C(C)C)cc4)CC3)C2)n1 (stereo unspecified), the Potency is reported as inconclusive: 12.6 µM [inhibitor, partial curve, poor fit].
With CN(Cc1ccccc1)Cc1cn(C[C@H]2O[C@@H](CC(=O)N3CCCC3)[C@H](O)[C@@H]2O)nn1 the Potency was “inactive”.
For Cc1noc(C)c1-c1cc2cc(CN(C)C)oc2c(N2CCN(Cc3ccccc3)CC2)n1, the Potency was active: 50.1 µM.
For CN(C)C(=O)C1=NOC2CN(C(=O)Nc3cccnc3)CC12 (stereo unspecified), the Potency was “inactive”.
For COc1cccc(CCNC(=O)c2c(C)noc2-c2ccc3c(c2)OCO3)c1, the Potency was inconclusive: 56.2 µM [inhibitor, partial curve, poor fit].
In the case of CCCc1noc(-c2cn(C3CCN(C(=O)Cc4cccc(F)c4)CC3)nn2)n1, the Potency is reported as “inactive”.
For COc1ccc(CCNC(=O)Cn2cccc2-c2nc(-c3ccc4c(c3)OCO4)no2)cc1OC, the Potency was inconclusive: 79.4 µM [inhibitor, partial curve, poor fit].
With CCN1c2cc(C(=O)Nc3cccc(C)c3)ccc2C(=O)N2CCCCCC21 (stereo unspecified) the Potency was inconclusive: 44.7 µM [inhibitor, partial curve, poor fit].
With C=CCN1C[C@@H]2C[C@@H](C(=O)NC)N(C(=O)c3ccc(-c4cccs4)s3)c3cccc(c32)C1=O the Potency was “inactive”.
For COc1ccc(C2=NOC3(CCN(Cc4ccsc4)C3)C2)cc1 (stereo unspecified), the Potency was inconclusive: 56.2 µM [inhibitor, partial curve, poor fit].
With CC(NC(=O)CN1C(=O)COc2ccc(C(=O)COc3ccc(F)cc3F)cc21)c1ccccc1 (stereo unspecified) the Potency was inconclusive: 89.1 µM [inhibitor, single point].
In the case of CCOC(=O)C1CCN(C(=O)C2CCc3nnc(C4CCN([S+](=O)([O-])c5ccccc5Cl)CC4)n32)CC1 (stereo unspecified), the Potency is reported as “inactive”.
In the case of COc1cccc(C(=O)N2CCC(c3nn(-c4ccccc4)c(=O)[nH]3)CC2)c1, the Potency is reported as inconclusive: 44.7 µM [inhibitor, partial curve, poor fit].
With O=C(NCc1cccc(F)c1)C1=NO[C@@H]2CN(Cc3ccc(F)cc3)C[C@H]12 the Potency was inconclusive: 126 µM [inhibitor, single point].
For O=c1c2nc(N3CCC(c4ccccc4)CC3)ccc2ncn1Cc1ccccn1, the Potency was inconclusive: 126 µM [inhibitor, single point].
In the case of CC(C)C1CN(CC2CCC(N)CC2)CCC(=O)N1Cc1ccc(F)cc1 (stereo unspecified), the Potency is reported as inconclusive: 56.2 µM [inhibitor, partial curve, poor fit].
In the case of Cc1ccc(C(=O)N2CC(N3C(=O)c4c(c(C)nn4-c4ccccc4)C3C(C)C)C2)cc1 (stereo unspecified), the Potency is reported as inconclusive: 79.4 µM [inhibitor, partial curve, poor fit].
For CCOC(=O)N1CCC(N2CCCCC(N)C2)CC1 (stereo unspecified), the Potency was “inactive”.
For O=C(NCCc1ccccc1)C1CCN(C(=O)N2CC3CC(C2)[C@H]2CCCC(=O)N2C3)CC1 (stereo partly specified), the Potency was “inactive”.
In the case of Cc1ccccc1Nc1cnc2ccc(N3CCOCC3)nn12, the Potency is reported as active: 56.2 µM.
With Cc1ccc(OCc2nnc(NC(=O)NCCc3cnc[nH]3)s2)cc1 the Potency was inconclusive: 89.1 µM [inhibitor, single point].
With COc1ccc(CN2CC(CNC(=O)Cc3ccccc3)C3(C2)CN(c2ccccc2)C3)cc1O (stereo unspecified) the Potency was inconclusive: 79.4 µM [inhibitor, partial curve, poor fit].
In the case of COc1cccc(CN2CCOC3(CCN(Cc4ccc(C#N)cc4)CC3)C2=O)c1, the Potency is reported as inconclusive: 39.8 µM [inhibitor, partial curve, poor fit].
In the case of CC(C)(C)c1cc(CC2(NCc3ccc(OC(F)(F)F)cc3)COC2)no1, the Potency is reported as inconclusive: 100 µM [inhibitor, partial curve, poor fit].
For O=C(NC1CCCC1)c1cccc2c1CCN2S(=O)(=O)c1ccccc1, the Potency was inconclusive: 50.1 µM [inhibitor, partial curve, poor fit].
For CCN1CCN(C(=O)c2cn3cc(-c4ccc(OC)cc4)sc3n2)CC1, the Potency was inconclusive: 89.1 µM [inhibitor, single point].
With CSCC(=O)N[C@H]1CCN2C(=O)c3cc(-c4cccc(C)c4C)ccc3NC(=O)[C@H]12 the Potency was inconclusive: 112 µM [inhibitor, partial curve, poor fit].
With CNC(=O)c1cc(C2CC2)nc2onc(C3CCN(C(=O)N4CCOCC4)C3)c12 (stereo unspecified) the Potency was “inactive”.
With COc1cccc(CNCC2(COc3ccccc3)C[C@@H](O)[C@@H](O)C2)c1 (stereo partly specified) the Potency was inconclusive: 100 µM [inhibitor, partial curve].
In the case of NC(=O)CNC(=O)C1=C[C@@H](NC(=O)Nc2ccc(OC(F)(F)F)cc2)[C@@H](O)[C@H](O)C1, the Potency is reported as “inactive”.
For COc1ccc(S(=O)(=O)NC[C@@H]2C=C(C)[C@H](CC(=O)NCc3ccc(C#N)cc3)C[C@H]2C(C)C)cc1, the Potency was inconclusive: 25.1 µM [inhibitor, full curve].
